Results taken from PubChem BioAssay AID686978 (National Center for Advancing Translational Sciences (NCATS), 2013).
Where “and” joins values, the source holds several entries; their conditions need not be identical. Equal entries are not always repeated. Among all 420,000 compounds or so, about 64,000 (15%) were called active. The shares of active, inactive and inconclusive entries below differ from those in the screen. The call rests on the fitted dose curve; in most records, active means well fitted inhibition curve with a large enough effect; inconclusive means small, poorly fitted or top-dose-only effect; inactive means flat fitted curve, though single readings scatter. Where the call is inconclusive, the potency comes from a doubtful curve fit.

Experiment: qHTS for Inhibitors of human tyrosyl-DNA phosphodiesterase 1 (TDP1): qHTS in cells in absence of CPT; further: nearly all actives have a fitted effect of over 55% in size
Details: DT40 Tdp1-/- hTDP1 cells, no CPT, ATP luminescence, 48 h; activity change, negative = growth inhibition: at 46.2 µM (top of the series) unless noted
In short: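 Readout: luminescence from CellTiter-Glo after 30 min in the dark at RT. Cells: DT40 Tdp1-/- with stable hTDP1, 400/well. Exposure: compounds alone, ≥48 hr, 37 °C.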
On the % scale 0 is the no-effect control and ±100 the full control effect; potency means the concentration at half of the fitted maximal effect; tags describe the fitted curve by direction and shape.

SMILES | Potency | activity change, negative = growth inhibition
Cc1ccc(S(=O)(=O)c2nc(-c3cccc(Cl)c3)oc2NCc2ccccc2)cc1 | inconclusive: 11.6 µM [inhibitor, partial curve] | –
c1ccc(-c2cc3c(N4CCN(c5ccccc5)CC4)ncnc3s2)cc1 | active: 18.4 µM | –
Cc1nnc(N2CCCC(C(=O)NCCc3ccccc3)C2)c2nn(-c3ccccc3)c(C)c12 (stereo not drawn) | active: 18.4 µM | –
COc1ccc(N2CCN(C(=O)CCS(=O)(=O)c3ccc4c(c3)CCN4C(=O)C3CC3)CC2)cc1 | inconclusive: 13 µM [inhibitor, partial curve] | –
Cc1ccn2cc(-c3ccc(C)c(NS(=O)(=O)c4ccc(Cl)cc4)c3)nc2c1 | active: 20.6 µM | –
COc1ccc(CN(C)C(=O)C23CC4CC(CC(C4)C2)C3)c(OC)c1 | inconclusive: 11.6 µM [inhibitor, partial curve] | –
CCOc1ccc(CCN2C(=O)C(=O)N([C@@H](CC(C)C)CN3CCC[C@H]3CN3C(=O)C(=O)NC[C@@H]3CC(C)C)C[C@@H]2CC(C)C)cc1 | inconclusive: 23.1 µM [inhibitor, single point] | –
N#CC(C#N)=Cc1c[nH]c(=O)c(C#N)c1Nc1ccccc1 | – | inactive: 0.681%
CC(C)C[C@H]1COc2cc(N(C)CCO)ccc2S(=O)(=O)N1 | – | inactive: -8.46%
COc1ccc(NS(=O)(=O)c2cc(NC(=O)c3cnccn3)ccc2N2CCCC2)cc1 | inconclusive: 23.1 µM [inhibitor, single point] | –
O=C(Cn1c2ccccc2c2nc3n(c(=O)c21)CCCS3)Nc1ccccc1 | inconclusive: 25.9 µM [inhibitor, partial curve, poor fit] | –
COc1ccc(Cl)cc1NC(=O)c1cccc(N2C(=O)C3CC=CCC3C2=O)c1 (stereo not drawn) | inconclusive: 2.91 µM [inhibitor, full curve, poor fit] | –
CCn1c(=O)cc(NC2=NCC(C)CN2c2cccc(Cl)c2)n(C)c1=O (stereo not drawn) | inconclusive: 20.6 µM [inhibitor, partial curve] | –
CN(C)CCNC(=O)c1ccc2c(c1)N(Cc1c(F)cccc1Cl)C(=O)c1ccccc1S2 | active: 23.1 µM | –
O=C(C[C@@H]1C/C=C\C[C@@H](Cc2ccc(F)cc2)C(=O)OC[C@@H](Cc2c[nH]c3ccccc23)NC1=O)NCCO | inconclusive: 20.6 µM [inhibitor, single point] | –
Cc1ccc(S(=O)(=O)c2nc(-c3ccc(F)cc3)oc2N2CCOCC2)cc1 | – | inactive: 0.198%
CCOC(=O)Cn1c(=O)oc2cc(S(=O)(=O)N3CCN(c4cc(C)ccc4C)CC3)ccc21 | inconclusive: 29.1 µM [inhibitor, single point] | –
O=C(Nc1ccc(C2=NCCN2)cc1)c1ccc(C(=O)Nc2ccc(C3=NCCN3)cc2)c([N+](=O)[O-])c1 | active: 6.51 µM | –
COc1cccc(C(c2ccccc2)N2C3CCC2CN(S(=O)(=O)c2ccc(F)cc2)CC3)c1 (stereo not drawn) | inconclusive: 29.1 µM [inhibitor, single point] | –
O=C(NN=Cc1ccc([N+](=O)[O-])cc1)C1CC1 | – | inactive: -13.3%
CCOC(=O)c1cc(C(=O)NN)c(=O)[nH]c1C | – | inactive: -3.84%
CC(O)(c1ccccc1)c1nc(-c2ccccc2)cs1 (stereo not drawn) | inconclusive: 25.9 µM [inhibitor, single point] | –
COc1ccc(N2CCN(C(=O)Cc3ccc(Cl)cc3)CC2)cc1 | inconclusive: 18.4 µM [inhibitor, partial curve] | –

SMILES | Potency | activity change, negative = growth inhibition
COc1ccc(OCc2cc(C(=O)N3CCCC(CO)C3)no2)c2ccccc12 (stereo not drawn) | active: 14.6 µM | –
COc1ccccc1-n1ccnc1SCC(=O)NCc1ccco1 | inconclusive: 20.6 µM [inhibitor, single point] | –
Cc1ccc(S(=O)(=O)c2c[nH]c3ccc(C)cc3c2=O)cc1 | – | inactive: -4.84%
CCOC(=O)N1CCN(S(=O)(=O)c2ccc(OCC(=O)OC)c(Cl)c2)CC1 | – | inactive: -3.78%
COc1cc(Cl)c(CN2CCC(CO)(CCOc3ccccc3)CC2)cc1OC | inconclusive: 23.1 µM [inhibitor, single point] | –
c1ccc(CNc2ccnc(-c3ccc4c(c3)OCO4)n2)cc1 | inconclusive: 16.4 µM [inhibitor, single point] | –
Cc1ccc(C(=O)Nc2cccc(C(F)(F)F)c2)cc1NC(=O)c1[nH]cnc1C(N)=O | inconclusive: 11.6 µM [inhibitor, partial curve] | –
CCC(C)c1ccc(O)c(/C=N/O)c1 (stereo not drawn) | – | inactive: 16.9%
COc1ccccc1CNC(=O)COC(=O)c1ccccc1SCC(=O)N1CCCC1 | inconclusive: 29.1 µM [inhibitor, single point] | –
CC(=O)CSc1nc(CCc2ccccc2)c(C#N)c(=O)[nH]1 | – | inactive: -5.37%
COc1cc2ccccc2cc1C(=O)N1CCN(c2ccccn2)CC1 | – | inactive: -23.4%
COc1ccc(-c2cc(C(F)(F)F)nc(-n3cc(Cl)cn3)n2)cc1 | inconclusive: 23.1 µM [inhibitor, single point] | –
CCCC1=NN2C(=N)/C(=C\c3ccc(OCCOc4ccc(NC(C)=O)cc4)c(OC)c3)C(=O)N=C2S1 | – | inactive: -3.08%
COc1ccccc1Nc1nc(-c2ccc([N+](=O)[O-])cc2)nc2ccccc12 | inconclusive: 13 µM [inhibitor, single point] | –
CC(=O)Nc1ccc(-c2ccnc3c2CC(C(=O)NCCc2ccccc2)O3)cc1 (stereo not drawn) | inconclusive: 25.9 µM [inhibitor, single point] | –
Cc1ccc(NC(=S)Nc2ncccc2C)c(C)c1 | inconclusive: 11.6 µM [inhibitor, partial curve, poor fit] | –
Cn1cnc(S(=O)(=O)N2CCCC(C(=O)Nc3ccc(OC(F)(F)F)cc3)C2)c1 (stereo not drawn) | inconclusive: 23.1 µM [inhibitor, partial curve] | –
COCCCNC(=O)c1ccc2nc(CCc3ccccc3)oc2c1 | inconclusive: 16.4 µM [inhibitor, single point] | –
Nc1ccccc1-c1nnc(SCc2ccccc2Cl)[nH]c1=O | inconclusive: 29.1 µM [inhibitor, single point] | –
CN(CC(=O)Nc1ccc(F)cc1)C(=O)COc1ccc([N+](=O)[O-])cc1Cl | inconclusive: 20.6 µM [inhibitor, single point] | –
C1CCN2C[C@H]3C[C@H](CN4CCCCC34)C2C1 (stereo partly drawn) | inactive and inconclusive: 29.1 µM [inhibitor, single point] | –
COc1ccc(NC(=O)Nc2ccc3c(c2)OCO3)c(C)c1 | – | inactive: -14.7%
CCc1ccc(-c2cc(C)no2)cc1S(=O)(=O)Nc1cccc(CN2CCCC2)c1 | – | inactive: 21.5%

SMILES | Potency | activity change, negative = growth inhibition
Cc1cc([N+](=O)[O-])c2[nH]c(C(=O)N/N=C/c3ccccc3C(=O)O)c(-c3ccccc3)c2c1 | – | inconclusive: -31.4% [inhibitor]
Cc1ccc(S(=O)(=O)N(CC(=O)NCc2ccncc2)Cc2ccccc2F)cc1 | inconclusive: 29.1 µM [inhibitor, single point] | –
CC(=O)Nc1ccc(N2C(=O)CC(Sc3nc4ccccc4s3)C2=O)cc1 (stereo not drawn) | inconclusive: 29.1 µM [inhibitor, single point] | –
CC(C)C[C@H]1CN(CCCC[C@H]2CNC(=O)C(=O)N2CCc2ccccc2)C(=O)C(=O)N1Cc1ccccc1 | inconclusive: 16.4 µM [inhibitor, single point] | –
C/C(=N\Nc1ccc(C)c(Cl)c1)c1ccncc1 | – | inconclusive: -31.9% [inhibitor]
CCOC(=O)CN(C)C(=O)c1cnn(-c2ncc3c(n2)-c2ccccc2CCC3)c1C | inconclusive: 23.1 µM [inhibitor, single point] | –
CN1CCN(C2CN(C3CCCC3)S(=O)(=O)C2)CC1 (stereo not drawn) | – | inactive: 1.6%
Cc1nnc(SCc2c(Cl)cccc2Cl)s1 | inconclusive: 23.1 µM [inhibitor, single point] | –
COc1ccc(CCN2C(=O)CC(Cc3ccc(Br)cc3)C2=O)cc1OC (stereo not drawn) | inconclusive: 29.1 µM [inhibitor, single point] | –
CCOC(=O)C1=CC[C@@H](c2cc(OC)c(OC)c(OC)c2)N(S(=O)(=O)c2ccc(C)cc2)[C@H]1C(=O)OCC | inconclusive: 18.4 µM [inhibitor, single point] | –
O=C(O)C1=CCC=CC1C(=O)O (stereo not drawn) | – | inactive: -0.311%
O=C1C=C(c2ccc(-c3ccccc3)c(F)c2)C[C@@H](c2ccc(F)cc2)C1 | inconclusive: 29.1 µM [inhibitor, single point] | –
Cc1cccc(C)c1NC(=O)C1(C)CN(S(C)(=O)=O)CC(=O)N1CCOc1ccccc1 (stereo not drawn) | – | inactive: -5.84%
COc1cc2c(cc1OC)C(C(=O)Nc1ccc3c(c1)OCCO3)C1c3ccccc3CCN1C2=O (stereo not drawn) | active: 23.1 µM | –
Cc1ccc(-c2cc(NC(=O)c3ccccc3[N+](=O)[O-])n[nH]2)cc1 | active: 20.6 µM | –
N#Cc1cc([N+](=O)[O-])ccc1N1CCCC1 | inconclusive: 32.6 µM [inhibitor, partial curve, poor fit] | –
COC(C[C@@H]1O[C@@H]1[C@H](O)[C@@H](C)OCc1ccccc1)OC | – | inactive: 5.98%
O=C1CCCC/C1=C\Nc1ccccc1C(=O)O | – | inactive: -17.1%
Cc1c(Cl)ccc2sc(N3CCN(C(=O)CS(=O)(=O)c4ccccc4)CC3)nc12 | active: 4.11 µM | –
COc1ccc(CN2CCC(CO)(CCOc3ccccc3)CC2)cc1C | inconclusive: 23.1 µM [inhibitor, single point] | –
Cc1cc([N+](=O)[O-])ccc1Nc1nc2ccccc2n2cnnc12 | inconclusive: 20.6 µM [inhibitor, single point] | –
CCOc1ccc(NC(=O)CSc2nc3nc(C)cc(C)n3n2)cc1 | inconclusive: 29.1 µM [inhibitor, single point] | –
